# Test results from paper PMC12136788.
# This is one part of the list.
# B1: chr17:67854386:67854487:+|CDS|ENSG00000171634|unk|total|mutant (ssRNA)
# RNA: GGGAGUUCUACAGUCCGACGAUCAGAGGCAGAGGACUACCCAUAUGGACCAGCCGAGAACAAGAUCAAAGUUCUACAGUUUCCCGUCGAUCAGUUUCUUACAACAAAUAUUGCUCGAGAGGAAUUGAUGUCUGAAGGGGUGAUCAACAGAGGAUUGAGCAUCA
# B2: ENSG00000136451:be:win_1601|3pUTR|ENSG00000136451|bound_else_gene|NA|bound_elsewhere_windowed (ssRNA)
# RNA: GGGAGUUCUACAGUCCGACGAUCAAUAUUUACCAGCAACUUAACUUUUAGUUGAUUAAAGCAAAAAGUAAACCAUGAAAUUGGGAGAUUUUAUUACAUUAGUUAAUAAGAGUGUGGUAGCAUUUUUCUCCAAUUUGGCUGGGACAACAGAGGAUUGAGCAUCA
# B3: chr2:32415436:32415554:+|CDS|ENSG00000115760|unk|total|mutant (ssRNA)
# RNA: GGGAGUUCUACAGUCCGACGAUCUGGGACUUUGGUUCAGUGCUUGAGGCUGCCAAAGUUUGCAGAGGAGGAGAAUCUUUGUACCGACUCAAUAACUCCUUGUGCUGACGGAAUUCAUUUGUUGGCCGGACUGCGGACAUGCCCCAACAGAGGAUUGAGCAUCA
# B4: chr1:205434884:205440924:-|three_prime_utr|ENSG00000281406|control|control|control (ssRNA)
# RNA: GGGAGUUCUACAGUCCGACGAUCUGCCUGCUUCUGGCUGGGGCUUGGAGCAGGAAGCCGUGUGUGUAUCUUAAGUCUUGAUUUAGCCAGUGCUCUUCUCAGCCUGACUCUCACCCGAGGGCAUCAGCCUCCUGUGUGCCUCUCCAACAGAGGAUUGAGCAUCA
# B5: chr1:20111938:20114255:-|three_prime_utr|ENSG00000117215|control|control|control (ssRNA)
# RNA: GGGAGUUCUACAGUCCGACGAUCACCAGAAGCGACUGCGUUUCUACUGGCGGCCCCACUGCCGGGGGCAGACCCCUGGGUGCUAGAAGCCCACACCCUCUACCCUGUUCCUCAGCAUGGAGCUCUGGCAUCCCCACCUCAGUACAACAGAGGAUUGAGCAUCA
# B6: chr10:43184366:43184487:+|3pUTR|ENSG00000169826|unk|total|mutant (ssRNA)
# RNA: GGGAGUUCUACAGUCCGACGAUCCCGUUUAUUUGAGCCAGCUCUAUCAGGGUCUUCCCAUGGUGGUUCAGAACCGAUGAGCACCGCAUGGUUUUGUUUGUUUUUGCUUUCAAUUUUCUAAUUUGGCAUGGAUCCAUAUGUAUUCAACAGAGGAUUGAGCAUCA
# Target: T1, UNK ZnF1-6 (called full-length) (human, UniProt Q9C0B0 30-357)
# T1 sequence: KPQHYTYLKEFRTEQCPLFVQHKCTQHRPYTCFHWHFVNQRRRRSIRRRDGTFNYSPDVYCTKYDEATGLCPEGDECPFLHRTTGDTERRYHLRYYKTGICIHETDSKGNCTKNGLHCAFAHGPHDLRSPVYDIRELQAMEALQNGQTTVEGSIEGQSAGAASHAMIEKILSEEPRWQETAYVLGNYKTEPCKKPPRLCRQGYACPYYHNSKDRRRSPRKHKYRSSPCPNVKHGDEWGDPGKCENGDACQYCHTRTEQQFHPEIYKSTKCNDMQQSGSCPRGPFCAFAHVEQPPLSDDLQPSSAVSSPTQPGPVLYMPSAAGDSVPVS
# Test: nsRBNS (natural sequence RNA bind-n-seq); RBNS binding buffer (assumed for nsRBNS): 25 mM Tris pH 7.5, 150 mM KCl, 3 mM MgCl2, 0.01% Triton X-100, 500 ug/ml BSA, 20 U/ml SUPERase-In, 4 C; UNK is unkempt and MSI1 is Musashi-1; names of the RNAs are library labels; protein concentration not given here; high values mean tight binding
row,Binder,binding signal [enrichment R]
1,B1,0.506
2,B2,0.712
3,B3,0.831
4,B4,0.745
5,B5,0.813
6,B6,1.2
